Data set [1] concerns L1210 lymphoblastic leukemia. Description: Mouse model of leukemia (survival). The conditions noted are these: 1, 5, 10 mg/kg every 3 days i.p. As for the experimental part:
Because of its inhibitory activity on the growth of numerous cancer cells, compound 1436 was evaluated in a classical mouse model of leukemia (Baker et al., Cancer Res. 53, 1993, 3052-3057). C57B mice were inoculated with L1210 lymphoblastic leukemia cells at an inoculum that causes leukemia in 100% of animals. Mice received compound 1436 at 1, 5, 10 mg/kg every 3 days intraperitoneally.

The nature of data set [2]: Hematological profile in L1210-inoculated mice. The note with it: in words.

On to `CC(C)[C@@H](CC[C@@H](C)[C@H]1CC[C@H]2[C@@H]3[C@H](O)C[C@H]4C[C@@H](NCCCNCCCCNCCCN)CC[C@]4(C)[C@H]3CC[C@]12C)OS(=O)(=O)O` [Compound 1436], for which, in data set [1], the prolongation of life result is recorded as “significant prolongation of life was achieved with the highest dose”. Besides, the hematological profile result in data set [2] was “near normal hematocrit, with evidence of a robust granulocyte count”.

Source of the values: US5840740A, “Aminosterol compounds and a method of treating infection using the aminosterol compounds” (priority 1995, dated 1998).
